# Data: the supplement of paper PMC9135407
# Where “and” joins values, the source holds several entries; their conditions need not be identical. Identical values can stand only once. Counter-ions that a name gives are not always drawn. The whole screen tested about 5,800 compounds, of which about 620 (11%) showed activity.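 Rule for the calls: active = score above a cut-off or among the top three wells of a plate; in these data no inactive exceeds 0.85.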 This is a selection; strong and weak results do not stand in their true shares.
# Tested on: primary human hepatic stellate cells (donor 1)
# Assay: scaled lipid accumulation score (0 = DMSO-like, 1 = nortriptyline-like); higher = stronger HSC inactivation (lipid re-accumulation), active = hit call of the paper
# Details: 48 h
# Procedure: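 Primary lipid accumulation screen in primary human hepatic stellate cell myofibroblasts (donor 1, passage 8) in 384-well plates. 100 nL of library compound was pin-transferred into 30 µL medium in duplicate, and cells were treated for 48 h. The 'Scaled' score combines distance from plate baseline, toxicity and reproducibility penalties, and is normalised to nortriptyline (positive) and DMSO (negative) controls on each plate. A hit is defined as scaled >0.85 or among the top 3 wells per plate.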
# [1] = library stock concentration: 10 mM
# [2] = library stock concentration: 6.4 mM
# [3] = library stock concentration: 400 uM
# [4] = library stock concentration: 2 mM
# [5] = library stock concentration: 3.33 mM
# [6] = library stock concentration: 1 mM
smiles,measurement,setting,value
CCCCNc1c(C(=O)OCC)c(C)nc2c1cnn2CC [Tracazolate],scaled lipid accumulation score,[1],inactive: 0.143
CCCCNc1c(C(=O)OCC)c(C)nc2c1cnn2CC [Tracazolate hydrochloride],scaled lipid accumulation score,,inactive: ≤ 0
same,scaled lipid accumulation score,[1],inactive: ≤ -0.006
COCCOc1cc2ncnc(Cl)c2cc1OCCOC,scaled lipid accumulation score,[1],inactive: ≤ 0
CNCCCC12CCC(c3ccccc31)c1ccccc12.Cl [Maprotiline hydrochloride],scaled lipid accumulation score,[2],active: 1.05
same,scaled lipid accumulation score,[1],active: 0.918 and active: 1.23
c1ccc(COCCCc2c[nH]cn2)cc1 [Proxyfan Oxalate],scaled lipid accumulation score,[1],inactive: ≤ 0
CC[N+](CC)(CC)CC(=O)Nc1c(C)cccc1C [QX 314 chloride],scaled lipid accumulation score,[1],inactive: ≤ -0.001
CC[N+](CC)(CC)CC(=O)Nc1c(C)cccc1C [QX 314 bromide],scaled lipid accumulation score,[1],inactive: ≤ 0
CC[N+](CC)(CC)CC(=O)Nc1c(C)cccc1C [Lidocaine N-ethyl bromide quaternary salt],scaled lipid accumulation score,[1],inactive: 0.159
COc1cc(-c2ccc(=O)[nH]n2)ccc1OC(F)F [Zardaverine],scaled lipid accumulation score,,inactive: 0.489
same,scaled lipid accumulation score,library stock concentration: 7.5 mM,inactive: 0.206
same,scaled lipid accumulation score,[1],inactive: 0.387
COc1cc(-c2ccc(=O)[nH]n2)ccc1OC(F)F,scaled lipid accumulation score,[1],inactive: ≤ 0
Cc1ccc([N+](=O)[O-])cc1S(=O)(=O)N(C)/N=C/c1cnc2ccc(Br)cn12,scaled lipid accumulation score,[3],inactive: 0.244
same,scaled lipid accumulation score,[4],inactive: 0.129
same,scaled lipid accumulation score,[5],inactive: 0.64
same,scaled lipid accumulation score,[1],inactive: 0.167 and inactive: ≤ -0.005
COc1ccc2nc3n[nH]c(C)c3c(NCCOCCO)c2c1,scaled lipid accumulation score,library stock concentration: 80 uM,inactive: ≤ -0.001
same,scaled lipid accumulation score,[3],inactive: ≤ -0.001
same,scaled lipid accumulation score,[4],inactive: ≤ -0.001
same,scaled lipid accumulation score,[5],inactive: 0.203
same,scaled lipid accumulation score,[1],inactive: 0.021
CCOC(=O)c1ccc(N)cc1 [Benzocaine],scaled lipid accumulation score,,inactive: ≤ 0
same,scaled lipid accumulation score,[5],inactive: ≤ 0
same,scaled lipid accumulation score,[1],inactive: ≤ -0.001 and inactive: ≤ 0
same,scaled lipid accumulation score,library stock concentration: 12.1 mM,inactive: ≤ -0.001
CCCCCCCCCCCCCCC(F)C(=O)O (stereo not drawn) [2-Fluoropalmitic acid],scaled lipid accumulation score,[6],inactive: ≤ -0.021
CCCCCCCCCCCCCCC(F)C(=O)O (stereo not drawn) [2-Fluoropalmitic Acid],scaled lipid accumulation score,[6],inactive: ≤ 0
CCCCCCCCCCCCc1ccc(S(=O)(=O)Nc2nncs2)cc1,scaled lipid accumulation score,[5],inactive: ≤ 0
same,scaled lipid accumulation score,[1],inactive: 0.218
Cl.c1cc(OCCN2CCCCC2)cc(-c2n[nH]c3ccc(-c4nc[nH]n4)cc23)c1,scaled lipid accumulation score,[1],active: 1.28
"C=CCn1c(=O)c2c(nc(-c3ccc(S(=O)(=O)O)cc3)n2C)n(C)c1=O [1-Allyl-3,7-dimethyl-8-p-sulfophenylxanthine]",scaled lipid accumulation score,[1],inactive: 0.065
C[C@]12CC[C@@H]3c4ccc(OS(=O)(=O)O)cc4CC[C@H]3[C@@H]1CCC2=O [Estropipate],scaled lipid accumulation score,,inactive: ≤ 0
C[C@]12CC[C@@H]3c4ccc(OS(=O)(=O)O)cc4CC[C@H]3[C@@H]1CCC2=O,scaled lipid accumulation score,[1],inactive: ≤ 0
CCCCC[C@H](O)/C=C/[C@H]1[C@@H](O)CC(=O)[C@@H]1CCCCCCC(=O)O [11.beta.-Prostaglandin E1],scaled lipid accumulation score,[6],inactive: ≤ 0
COc1cc2c(CCNC(C)=O)c[nH]c2cc1Cl [6-Chloromelatonin],scaled lipid accumulation score,[1],inactive: ≤ 0 and inactive: 0.053
Cn1cccc1/C=C1\C(=O)NC(=O)c2ccccc21,scaled lipid accumulation score,[1],inactive: 0.017
COc1cccc(OC)c1C(=O)N[C@@H]1C(=O)N2[C@@H]1SC(C)(C)[C@@H]2C(=O)O [Methicillin sodium],scaled lipid accumulation score,library stock concentration: 5 mM,inactive: ≤ -0.001
same,scaled lipid accumulation score,[1],inactive: ≤ 0
Cc1ccc(S(=O)(=O)NC(=O)NN2CCCCCC2)cc1 [Tolazamide],scaled lipid accumulation score,,inactive: 0.062
same,scaled lipid accumulation score,[2],inactive: ≤ -0.006 and inactive: ≤ 0
same,scaled lipid accumulation score,[1],inactive: ≤ 0
same,scaled lipid accumulation score,library stock concentration: 16.1 mM,inactive: 0.058
Cc1ccc(S(=O)(=O)NC(=O)NN2CCCCCC2)cc1,scaled lipid accumulation score,[1],inactive: ≤ 0
CN(C)c1ccc(C(=O)NCCCCCC(=O)NO)cc1,scaled lipid accumulation score,[6],inactive: ≤ 0
CC(Cc1ccc(O)c(O)c1)(NN)C(=O)O [(S)-(-)-Carbidopa],scaled lipid accumulation score,[1],inactive: ≤ 0
CC(Cc1ccc(O)c(O)c1)(NN)C(=O)O (stereo not drawn) [S-(-)-Carbidopa],scaled lipid accumulation score,[1],inactive: 0.098
CCCCC[C@](C)(O)/C=C/[C@H]1[C@H](O)CC(=O)[C@@H]1CCCCCCC(=O)O [15(S)-15-methyl Prostaglandin E1],scaled lipid accumulation score,[6],inactive: 0.012
CCCn1c(=O)[nH]c2nc(-c3ccc(S(=O)(=O)O)cc3)[nH]c2c1=O,scaled lipid accumulation score,[1],inactive: 0.062
Cc1ccsc1/C=C/C1=NCCCN1C [Morantel citrate],scaled lipid accumulation score,library stock concentration: 4.8 mM,inactive: ≤ 0
same,scaled lipid accumulation score,[1],inactive: 0.048
Cc1ccsc1/C=C/C1=NCCCN1C [Morantel tartrate],scaled lipid accumulation score,,inactive: 0.022
